# Assay results published in the supplement of paper PMC3334620.
# The full ranking holds about 33,000 sequences; the median of “E-score (-0.5 to 0.5)” is about -0.04, and the highest 2% start at about 0.36. Some of the results follow.
# Target: T1, Hmlalpha2 (UniProt P0CY09)
# T1 sequence: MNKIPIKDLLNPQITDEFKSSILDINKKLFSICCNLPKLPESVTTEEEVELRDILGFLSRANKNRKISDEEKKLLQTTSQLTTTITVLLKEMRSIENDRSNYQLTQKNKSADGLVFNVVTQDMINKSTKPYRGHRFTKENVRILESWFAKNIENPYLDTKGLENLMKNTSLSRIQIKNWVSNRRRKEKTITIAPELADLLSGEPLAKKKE
# Experiment: PBM E-score (8-mer binding enrichment) (E-score (-0.5 to 0.5)); higher = stronger / more preferred TF binding; most listed sequences are background and not binding sites
# Conditions: protein concentration: 200 nM; construct: GST-full length
# How it was run: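 Using PURExpress in vitro transcription/translation, GST-tagged yeast transcription factors were made in full-length or DNA-binding-domain form. These were applied at about 100-200 nM to double-stranded universal all-10-mer Agilent arrays, and bound protein was detected with fluorescent anti-GST. Scans were normalised with masliner before the Universal PBM Analysis Suite assigned E-scores to ungapped eight-base words pooled with their reverse complements.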
row,Sequence,PBM E-score
1,CCCCCACG,-0.262
2,GTCATGCA,0.133
3,ACATCGGA,0.0659
4,CTTCCTGC,-0.0744
5,CAGTGCTA,-0.197
6,AAATTAAG,0.0964
7,CCATGCGG,-0.12
8,CTATAACC,-0.0529
9,AGTTATTA,0.214
10,AAGGAGAC,-0.0366
11,CGCGTTTA,0.266
12,AGGTAGCA,-0.164
13,ACATGCTA,0.379
14,CGAAGCCG,-0.267
15,CTAATTAC,0.362
16,AGCAATAT,0.0158
17,AGAGTCAA,-0.224
18,GGTAATAA,0.178
19,CTTGTGGA,-0.0735
20,ATGTACGG,0.147
21,CATGGGAA,0.107
22,GATGGTAA,-0.0264
23,CGACGTCG,-0.0462
24,GACAGAGA,0.134
25,AGTTGGCG,-0.172

row,Sequence,PBM E-score
1,GATTATCA,0.0169
2,ACCATAGG,-0.168
3,CGAAGTCG,0.137
4,GAGTTAGA,-0.0875
5,AATAAAAA,0.23
6,ACCCATTA,0.0874
7,GCGTATCC,0.0764
8,CCCACGCG,-0.223
9,CGAACACG,0.254
10,GTGCTTGA,0.0547
11,AAGGGGCT,-0.0207
12,CAAGTGTG,0.0681
13,CCGATGCG,-0.121
14,GGCTTGGA,-0.241
15,CGGTACGA,-0.0787
16,AGTCGTAT,0.0171
17,CTTAAATA,-0.101
18,CGACCCTA,-0.16
19,GGTGACCA,-0.225
20,AATTGCCG,-0.102
21,ACTCCCCG,-0.0984
22,GGCGGACA,-0.303
23,GCCAGTTA,0.0175
24,CTCTAGGC,-0.201
25,CCGGACGG,-0.226

row,Sequence,PBM E-score
1,GGAGACCA,-0.221
2,CCCTGCTC,-0.261
3,CTGCGTGC,0.106
4,CGGCATGA,-0.128
5,AGGGTGAA,-0.0754
6,CATATTCA,0.179
7,CTTTACCC,0.0677
8,CGCCCTTA,-0.101
9,CACTGATC,-0.133
10,CCTGAAAC,0.0126
11,AGGCGCAC,-0.199
12,CGAGTACC,0.0986
13,CACTTCAA,0.2
14,AATGATAC,0.142
15,ACAACCGG,0.0897
16,GACGTCTA,-0.189
17,ATACTGTA,0.157
18,CATTTGCC,-0.299
19,TTCTGAAA,0.0341
20,AAACAACT,0.0928
21,CACCTCCC,-0.275
22,AAATTAGC,0.0486
23,CGGTCAGC,-0.154
24,AAAGAGGA,-0.304
25,GTATATCA,0.292

row,Sequence,PBM E-score
1,GCCGAGCA,-0.332
2,GGAGGTTA,-0.0713
3,AGAAGGGA,-0.329
4,GGAAGGGA,-0.452
5,ACGGCCGC,-0.024
6,AGGGGAAT,-0.112
7,GGAAGCAC,0.0403
8,CATATCCC,0.0687
9,CGACTCAC,-0.21
10,CTTAGAGA,-0.198
11,CTAGAGAA,-0.111
12,CGCAAAAG,-0.031
13,TATTGCAA,0.0893
14,CGTACCTA,-0.0874
15,CAAAAGAC,-0.0821
16,CAAGGCCC,-0.164
17,AGAATCGG,-0.092
18,TTAGTGAA,0.122
19,ACTATATG,0.0852
20,GAGGATGC,-0.14
21,GATGCCCA,-0.13
22,AACCTCAG,-0.0975
23,TACCAGGA,-0.0294
24,AAGCAAGG,-0.0396
25,ATGTAGCA,0.185

row,Sequence,PBM E-score
1,TAAAGTCA,0.0157
2,CTGGCGCC,-0.196
3,CACCCTAC,0.132
4,CGTGATCC,-0.167
5,CTGAGCTC,-0.199
6,CCCTAAAG,-0.33
7,CGGGGAGA,-0.256
8,CTCGCTCA,-0.0687
9,GCATATAA,0.126
10,ATCGGATA,0.146
11,CTGCCTTA,-0.206
12,CACATTGC,0.245
13,CTTCATTC,-0.149
14,ACTACGAC,0.0185
15,ATATCTGG,-0.124
16,CTCCGCAG,-0.23
17,CGTAGAAG,0.17
18,GGTTTGAC,-0.00499
19,ATACGTGG,0.181
20,TAAATCCA,0.0603
21,GTCCCCTA,-0.161
22,CTTCCCGC,-0.0834
23,CATACGAA,0.104
24,AGTGAACT,0.0194
25,CCTAATCC,-0.224

row,Sequence,PBM E-score
1,AATAAATC,-0.0699
2,GATAAGGC,-0.126
3,AAAAGGCG,0.00436
4,GAGTTGAA,-0.117
5,CGAAGGCC,-0.313
6,AGAGCGGG,-0.166
7,ACCCATCA,-0.0788
8,AGGGCCCA,-0.239
9,AACTGGCT,-0.161
10,ATCGGTGG,-0.314
11,ATCCGATG,-0.00175
12,CAGAGCAC,-0.161
13,GGGGGCAC,-0.315
14,GATCTGGC,0.0544
15,CGCACGCG,-0.0207
16,GAATGGGC,-0.231
17,ATTCACAA,0.232
18,ACTAAAGG,-0.024
19,CCCCTTCC,-0.173
20,GCTAGAGA,-0.17
21,GAGATGAA,-0.0111
22,CCGGCGCC,-0.204
23,AAAATAGG,0.0818
24,CGACTCTC,-0.261
25,GAAAGACC,-0.353

row,Sequence,PBM E-score
1,ACGGTTCG,-0.21
2,AATCATAT,0.0462
3,CTGTGTAA,0.483
4,TAGGGAAA,-0.0352
5,CAGGATAC,-0.0887
6,CTTTCATA,0.162
7,GTGACAAC,0.0482
8,AAGCCTCC,-0.163
9,ACGTTCGA,0.0841
10,AAAATGTA,0.258
11,ATGACCAG,-0.106
12,AGATGAAC,0.206
13,CTTGATTA,-0.00946
14,AAATTCGG,-0.0282
15,GGTGGACA,-0.0373
16,CTATATCA,-0.131
17,ATAGAGTG,-0.153
18,CAGGCACG,-0.037
19,CCCGCTCC,-0.417
20,AAGGCCGC,-0.0672
21,AGATTGGC,-0.218
22,CGGGGTTA,-0.143
